Data published in the supplement of paper PMC8728848.
The other results are listed elsewhere or left out.

Tests used:
Assay in all cases: glycan array binding signal (z-score within array); higher = stronger binding
Conditions in all cases: glycan notation: IUPAC condensed, linker removed
[1] = target: Glc(b1-4)Glc(b1-4)Glc(b1-4)Glc(b1-4)Glc(b1-4)Glc(b1-4)Glc(b1-4)Glc(b1-4)Glc(b1-4)Glc(b1-4)Glc(b1-4)Glc(b1-4)Glc
Summary of the method: (§1)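 Negative Z-scores can be read as non-binding. The Z-score is calculated within each array and then averaged across arrays of one protein sequence at different concentrations or buffers and across linkers. Arrays, 3228 in all, were curated from the Consortium for Functional Glycomics database and kept only where the protein sequence was available.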

Glc(b1-6)Glc = target: Glc(b1-6)Glc
Summary of the method: as §1

Glc(b1-6)Glc(b1-6)Glc = target: Glc(b1-6)Glc(b1-6)Glc
Summary of the method: as §1

[2] = target: Glc(b1-6)Glc(b1-6)Glc(b1-6)Glc
Summary of the method: as §1

[3] = target: Glc(b1-6)Glc(b1-6)Glc(b1-6)Glc(b1-6)Glc
Summary of the method: as §1

[4] = target: Glc(b1-6)Glc(b1-6)Glc(b1-6)Glc(b1-6)Glc(b1-6)Glc
Summary of the method: as §1

[5] = target: Glc(b1-6)Glc(b1-6)Glc(b1-6)Glc(b1-6)Glc(b1-6)Glc(b1-6)Glc
Summary of the method: as §1

[6] = target: Glc(b1-6)Glc(b1-6)Glc(b1-6)Glc(b1-6)Glc(b1-6)Glc(b1-6)Glc(b1-6)Glc
Summary of the method: as §1

[7] = target: Glc(b1-6)Glc(b1-6)Glc(b1-6)Glc(b1-6)Glc(b1-6)Glc(b1-6)Glc(b1-6)Glc(b1-6)Glc
Summary of the method: as §1

[8] = target: Glc(b1-6)Glc(b1-6)Glc(b1-6)Glc(b1-6)Glc(b1-6)Glc(b1-6)Glc(b1-6)Glc(b1-6)Glc(b1-6)Glc
Summary of the method: as §1

[9] = target: Glc(b1-6)Glc(b1-6)Glc(b1-6)Glc(b1-6)Glc(b1-6)Glc(b1-6)Glc(b1-6)Glc(b1-6)Glc(b1-6)Glc(b1-6)Glc
Summary of the method: as §1

[10] = target: Glc(b1-6)Glc(b1-6)Glc(b1-6)Glc(b1-6)Glc(b1-6)Glc(b1-6)Glc(b1-6)Glc(b1-6)Glc(b1-6)Glc(b1-6)Glc(b1-6)Glc
Summary of the method: as §1

[11] = target: Glc(b1-6)Glc(b1-6)Glc(b1-6)Glc(b1-6)Glc(b1-6)Glc(b1-6)Glc(b1-6)Glc(b1-6)Glc(b1-6)Glc(b1-6)Glc(b1-6)Glc(b1-6)Glc
Summary of the method: as §1

GlcA(b1-3)Gal = target: GlcA(b1-3)Gal
Summary of the method: as §1

[12] = target: GlcA(b1-3)Gal(b1-3)GlcNAc
Summary of the method: as §1

[13] = target: GlcA(b1-3)Gal(b1-4)GlcNAc(b1-3)Gal(b1-4)Glc
Summary of the method: as §1

[14] = target: GlcA(b1-3)Gal(b1-4)GlcNAc(b1-3)Gal(b1-4)GlcNAc(b1-3)Gal(b1-4)Glc
Summary of the method: as §1

[15] = target: GlcA(b1-3)GlcNAc(b1-4)GlcA(b1-3)GlcNAc
Summary of the method: as §1

[16] = target: GlcA(b1-3)GlcNAc(b1-4)GlcA(b1-3)GlcNAc(b1-4)GlcA(b1-3)GlcNAc(b1-4)GlcA(b1-3)GlcNAc(b1-4)GlcA(b1-3)GlcNAc(b1-4)GlcA(b1-3)GlcNAc(b1-4)GlcA(b1-3)GlcNAc
Summary of the method: as §1

[17] = target: GlcA(b1-4)GlcNAc(a1-4)GlcA(b1-4)2,5-Anhydro-Man
Summary of the method: as §1

[18] = target: GlcA(b1-4)GlcNAc(a1-4)GlcA(b1-4)GlcNAc(a1-4)GlcA(b1-4)GlcNAc(a1-4)GlcA(b1-4)2,5-Anhydro-Man
Summary of the method: as §1

GlcA3S(b1-3)Gal = target: GlcA3S(b1-3)Gal
Summary of the method: as §1

[19] = target: GlcA3S(b1-3)Gal(b1-4)GlcNAc(b1-3)Gal(b1-4)Glc
Summary of the method: as §1

[20] = target: GlcA3S(b1-3)Gal(b1-4)GlcNAc(b1-3)Gal(b1-4)GlcNAc(b1-3)Gal(b1-4)Glc
Summary of the method: as §1

GlcNAc(a1-4)Gal = target: GlcNAc(a1-4)Gal
Summary of the method: as §1

[21] = target: GlcNAc(a1-4)Gal(b1-3)[Fuc(a1-2)]Gal
Summary of the method: as §1

GlcNAc(b1-2)Fuc = target: GlcNAc(b1-2)Fuc
Summary of the method: as §1

GlcNAc(b1-2)Man = target: GlcNAc(b1-2)Man
Summary of the method: as §1

[22] = target: GlcNAc(b1-2)Man(a1-3)[GlcNAc(b1-2)Man(a1-6)]Man
Summary of the method: as §1

[23] = target: GlcNAc(b1-2)Man(a1-3)[GlcNAc(b1-2)Man(a1-6)]Man(b1-4)GlcNAc(b1-4)GlcNAc
Summary of the method: as §1

[24] = target: GlcNAc(b1-2)Man(a1-3)[GlcNAc(b1-2)Man(a1-6)]Man(b1-4)GlcNAc(b1-4)[Fuc(a1-6)]GlcNAc
Summary of the method: as §1

[25] = target: GlcNAc(b1-2)Man(a1-3)[GlcNAc(b1-2)Man(a1-6)][GlcNAc(b1-4)]Man(b1-4)GlcNAc(b1-4)GlcNAc
Summary of the method: as §1

[26] = target: GlcNAc(b1-2)Man(a1-3)[Man(a1-3)[Man(a1-6)]Man(a1-6)][GlcNAc(b1-4)]Man(b1-4)GlcNAc(b1-4)GlcNAc
Summary of the method: as §1

[27] = target: GlcNAc(b1-2)[GlcNAc(b1-4)]Man(a1-3)[GlcNAc(b1-2)Man(a1-6)][GlcNAc(b1-4)]Man(b1-4)GlcNAc(b1-4)GlcNAc
Summary of the method: as §1

[28] = target: GlcNAc(b1-2)[GlcNAc(b1-4)]Man(a1-3)[GlcNAc(b1-2)[GlcNAc(b1-4)][GlcNAc(b1-6)]Man(a1-6)][GlcNAc(b1-4)]Man(b1-4)GlcNAc(b1-4)GlcNAc
Summary of the method: as §1

[29] = target: GlcNAc(b1-2)[GlcNAc(b1-4)]Man(a1-3)[GlcNAc(b1-2)[GlcNAc(b1-6)]Man(a1-6)]Man(b1-4)GlcNAc(b1-4)GlcNAc
Summary of the method: as §1

GlcNAc(b1-3)Fuc = target: GlcNAc(b1-3)Fuc
Summary of the method: as §1

GlcNAc(b1-3)Gal(b1-4)Glc = target: GlcNAc(b1-3)Gal(b1-4)Glc
Summary of the method: as §1

[30] = target: GlcNAc(b1-3)[GlcNAc(b1-6)]Gal
Summary of the method: as §1

[31] = target: GlcNAc(b1-3)[GlcNAc(b1-6)]Gal(b1-4)GlcNAc(b1-3)[GlcNAc(b1-6)]Gal(b1-4)GlcNAc(b1-3)Gal(b1-4)Glc
Summary of the method: as §1

GlcNAc(b1-4)Fuc = target: GlcNAc(b1-4)Fuc
Summary of the method: as §1

GlcNAc(b1-4)GlcNAc = target: GlcNAc(b1-4)GlcNAc
Summary of the method: as §1

[32] = target: GlcNAc(b1-4)GlcNAc(b1-4)GlcNAc
Summary of the method: as §1

[33] = target: GlcNAc(b1-4)GlcNAc(b1-4)GlcNAc(b1-4)GlcNAc
Summary of the method: as §1

[34] = target: GlcNAc(b1-4)GlcNAc(b1-4)GlcNAc(b1-4)GlcNAc(b1-4)GlcNAc
Summary of the method: as §1

B1: MIC1 (Toxoplasma gondii), O00834 (protein)
chain: VGPEAYGEASHSHSPASGRYIQQMLDQRCQEIAAELCQSGLRKMCVPSSRIVARNAVGITHQNTLQWRCFDTASLLESNQENNGVNCVDDCGHTIPCPGGVHRQNSNHATRHEILSKLVEEGVQRFCSPYQASANKYCNDKFPGTIARRSKGFGNNVEVAWRCYEKASLLYSVYAECASNCGTTWYCPGGRRGTSTELDKRHYTEEEGIRQAIGSVDSPCSEVEVCLPKDENPPLCLDESGQISRT
- glycan array binding signal (z-score) [1]: -0.287
- glycan array binding signal (z-score) (Glc(b1-6)Glc): -0.287
- glycan array binding signal (z-score) (Glc(b1-6)Glc(b1-6)Glc): -0.287
- glycan array binding signal (z-score) [2]: -0.287
- glycan array binding signal (z-score) [3]: -0.287
- glycan array binding signal (z-score) [4]: -0.287
- glycan array binding signal (z-score) [5]: -0.287
- glycan array binding signal (z-score) [6]: -0.287
- glycan array binding signal (z-score) [7]: -0.287
- glycan array binding signal (z-score) [8]: -0.287
- glycan array binding signal (z-score) [9]: -0.287
- glycan array binding signal (z-score) [10]: -0.287
- glycan array binding signal (z-score) [11]: -0.287
- glycan array binding signal (z-score) (GlcA(b1-3)Gal): -0.309
- glycan array binding signal (z-score) [12]: -0.299
- glycan array binding signal (z-score) [13]: -0.296
- glycan array binding signal (z-score) [14]: -0.3
- glycan array binding signal (z-score) [15]: -0.296
- glycan array binding signal (z-score) [16]: -0.312
- glycan array binding signal (z-score) [17]: -0.287
- glycan array binding signal (z-score) [18]: -0.287
- glycan array binding signal (z-score) (GlcA3S(b1-3)Gal): -0.309
- glycan array binding signal (z-score) [19]: -0.309
- glycan array binding signal (z-score) [20]: -0.282
- glycan array binding signal (z-score) (GlcNAc(a1-4)Gal): -0.265
- glycan array binding signal (z-score) [21]: -0.299
- glycan array binding signal (z-score) (GlcNAc(b1-2)Fuc): -0.287
- glycan array binding signal (z-score) (GlcNAc(b1-2)Man): -0.287
- glycan array binding signal (z-score) [22]: -0.287
- glycan array binding signal (z-score) [23]: -0.311
- glycan array binding signal (z-score) [24]: -0.312
- glycan array binding signal (z-score) [25]: -0.306
- glycan array binding signal (z-score) [26]: -0.3
- glycan array binding signal (z-score) [27]: -0.301
- glycan array binding signal (z-score) [28]: -0.3
- glycan array binding signal (z-score) [29]: -0.312
- glycan array binding signal (z-score) (GlcNAc(b1-3)Fuc): -0.287
- glycan array binding signal (z-score) (GlcNAc(b1-3)Gal(b1-4)Glc): -0.287
- glycan array binding signal (z-score) [30]: -0.287
- glycan array binding signal (z-score) [31]: -0.287
- glycan array binding signal (z-score) (GlcNAc(b1-4)Fuc): -0.287
- glycan array binding signal (z-score) (GlcNAc(b1-4)GlcNAc): -0.292
- glycan array binding signal (z-score) [32]: -0.3
- glycan array binding signal (z-score) [33]: -0.287
- glycan array binding signal (z-score) [34]: -0.287
